Laboratory results: article PMC13450841 (PLOS Pathogens, 2026)

Assays:
P. aeruginosa PA103 = system: P. aeruginosa PA103; design: species or system porcine; conditions: 48 hours
[1] = system: HCE-T cells infected with P. aeruginosa PA103

Which “Bacterial load (CFU per cornea)” value (P. aeruginosa PA103) does the source give for `COc1c(N2C[C@@H]3CCCN[C@@H]3C2)c(F)cc2c(=O)c(C(=O)O)cn(C3CC3)c12` [moxifloxacin] here?
The value was “markedly reduced bacterial burden but did not fully eradicate infection”.

And the “Lysis, ethidium homodimer-positive cells” value ([1]; PA103-infected, 2.5 μM moxifloxacin (sub-MIC), 10 h)?
The value was 38.8%.

And the “Difference in ethidium homodimer uptake compared to untreated controls” value ([1]; human)?
The value was under 1%.
